Source: the supplement of paper PMC4604168 (melanoma cell lines)
The list shows a part of the results. Most values come without repeats; read them as rough.

tested on: G361; assay: cell count relative to DMSO control; melanoma cells; higher = more viable cells; details: library dose: standard library concentration; 72 h
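Further: cells treated in 1,536-well plates, then fixed and DAPI-stained, with nuclei counted from automated high-throughput microscope images.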

Which cell count does the source give for `NC1(c2ccc(-c3nc4ccn5c(=O)[nH]nc5c4cc3-c3ccccc3)cc2)CCC1` + O=C(O)C(=O)Nc1sc2c(c1C(=O)O)CCNC2 [TCS401] (first compound 2 µM, partner dose 8.33333 µM) here?
Its cell count is 98.6%.

With `NC1(c2ccc(-c3nc4ccn5c(=O)[nH]nc5c4cc3-c3ccccc3)cc2)CCC1` + O=C(Nc1cccc(Cl)c1)Nc1ncc(CCNc2ncnc3ccsc23)s1 [SNS314] (first compound 2 µM, partner dose 0.004 µM) as the compound, how does the cell count read?
Its cell count is 75.3%.

How did the cell count turn out when `CCCS(=O)(=O)Nc1ccc(F)c(C(=O)c2c[nH]c3ncc(Cl)cc23)c1F` + CC(=O)c1c(C)c2cnc(Nc3ccc(N4CCNCC4)cn3)nc2n(C2CCCC2)c1=O [palbociclib] (first compound 0.4 µM, partner dose 0.2 µM) was run?
Its cell count is 47%.

With `CS(=O)(=O)c1ccc(C(=O)Nc2ccc(Cl)c(-c3ccccn3)c2)c(Cl)c1` [vismodegib] + Cc1cc(N2CCOCC2)cc2[nH]c(-c3c(NC[C@@H](O)c4cccc(Cl)c4)cc[nH]c3=O)nc12 [BMS536924] (first compound 5 µM, partner dose 1 µM) as the compound, how does the cell count read?
The cell count was 91.2%.

Which cell count does the source give for `CCCS(=O)(=O)Nc1ccc(F)c(C(=O)c2c[nH]c3ncc(Cl)cc23)c1F` + CCCCCCCCCCCC1=C(O)C(=O)C=C(O)C1=O [Embelin] (first compound 0.4 µM, partner dose 6 µM) here?
The cell count was 69.3%.

For `NC1(c2ccc(-c3nc4ccn5c(=O)[nH]nc5c4cc3-c3ccccc3)cc2)CCC1` + CC(C)(C)c1cnc(CSc2cnc(NC(=O)C3CCNCC3)s2)o1 [SNS-032] (first compound 2 µM, partner dose 0.05 µM), which cell count is on record?
Its cell count is 87.5%.

`C=C(c1ccc(C(=O)O)cc1)c1cc2c(cc1C)C(C)(C)CCC2(C)C` [Bexarotene] + CC(=O)c1c(C)c2cnc(Nc3ccc(N4CCNCC4)cn3)nc2n(C2CCCC2)c1=O [palbociclib] (first compound 10 µM, partner dose 0.2 µM) was tested. Which cell count did it give?
The cell count was 57.8%.

For `CN(c1ncccc1CNc1nc(Nc2ccc3c(c2)CC(=O)N3)ncc1C(F)(F)F)S(C)(=O)=O` + O=C(Nc1ccccc1)c1cc([N+](=O)[O-])ccc1Cl [GW9662] (first compound 0.4 µM, partner dose 10 µM), which cell count is on record?
The cell count was 84.8%.

`CCCS(=O)(=O)Nc1ccc(F)c(C(=O)c2c[nH]c3ncc(Cl)cc23)c1F` + Cc1nc(Nc2ncc(C(=O)Nc3c(C)cccc3Cl)s2)cc(N2CCN(CCO)CC2)n1 [dasatanib] (first compound 0.4 µM, partner dose 0.02 µM) was tested. Which cell count did it give?
The cell count was 59.6%.

Which cell count does the source give for `CCCS(=O)(=O)Nc1ccc(F)c(C(=O)c2c[nH]c3ncc(Cl)cc23)c1F` + C#Cc1cccc(Nc2ncnc3cc(OCCOC)c(OCCOC)cc23)c1 [erlotinib] (first compound 0.4 µM, partner dose 4 µM) here?
The cell count was 44.8%.

Which cell count does the source give for `C=C(c1ccc(C(=O)O)cc1)c1cc2c(cc1C)C(C)(C)CCC2(C)C` [Bexarotene] + Nc1nc(F)nc2c1ncn2[C@@H]1O[C@H](CO)[C@@H](O)[C@@H]1O [fludarabine] (first compound 10 µM, partner dose 1 µM) here?
The cell count was 59.5%.

With `CCCS(=O)(=O)Nc1ccc(F)c(C(=O)c2c[nH]c3ncc(Cl)cc23)c1F` + O=C1NC(=O)/C(=C/c2ccc(-c3ccc(F)cc3O)o2)S1 [AS252424] (first compound 0.4 µM, partner dose 5 µM) as the compound, how does the cell count read?
The cell count was 45.7%.

With `NC1(c2ccc(-c3nc4ccn5c(=O)[nH]nc5c4cc3-c3ccccc3)cc2)CCC1` + Oc1nc(-c2ccc(C(F)(F)F)cc2)nc2c1CSCC2 [XAV939] (first compound 2 µM, partner dose 10 µM) as the compound, how does the cell count read?
The cell count was 87.8%.

Which cell count does the source give for `CS(=O)(=O)c1ccc(C(=O)Nc2ccc(Cl)c(-c3ccccn3)c2)c(Cl)c1` [vismodegib] + O=C(O)C(=O)Nc1sc2c(c1C(=O)O)CCNC2 [TCS401] (first compound 5 µM, partner dose 8.33333 µM) here?
The cell count was 93.1%.

For `CS(=O)(=O)c1ccc(C(=O)Nc2ccc(Cl)c(-c3ccccn3)c2)c(Cl)c1` [vismodegib] + Cn1c(Nc2ccc(C(F)(F)F)cc2)nc2cc(Oc3ccnc(-c4ncc(C(F)(F)F)[nH]4)c3)ccc21 [CHIR265] (first compound 5 µM, partner dose 0.4 µM), which cell count is on record?
The cell count was 34.6%.
